Test results: the RNAGym collection of RNA variant scans (doi:10.7554/elife.90254)
The source gives no read counts; variants with many changes may rest on few reads.

B1: LINE1-full (parent)
chain: UACGUAGGUGGUUUUCCCCUGAUAGUGCUAAGGGGGCCUGGAAGUUUGGACUGGGCAGAGCUCAACACAGCGUGGCAAAGUGGCUGUGGCUAGACUGCCUCUCUGGAUUCCUCGUCACUCAGCAGGGCAUCUCUGAGAGAAAUGCC

Variants of: B1
Experiment: self-cleavage, relative activity (ratio to wild type); higher = more cleavage; in vitro, sequencing; the parent is a self-cleaving ribozyme

Variant	self-cleavage
UACGUAGGUGGUUUUCCCCUGAUAGUGCUAAGGGGGCCUGGAAGUUUGGACUGGGCAGGGCUCAACACAGCGUGUCAAAGUGGCUGUGGCUAGACUGCCUCUCUGGAUUCCUCGUCACUCAGCAGGGCAUCUCCGAGAGAAAUGCC [A59G G75U U134C]	0.05
UACGUAGGUGGUUUUCCCCUGAUAGUGCUAAGGGGGCCUGGAAGUUUGGACUGGGCAGGGCUCAACACAGCGUGGCAAAGUAGCUGUGGCUAGACUGCCUCUCUGGACUCCUCGUCACUCAGCAGGGCAUCUCUGAGAGAAAUGCC [A59G G82A U108C]	0.05
UACGUAGGUGGUUUUCCCCUGAUAGUGCUAAGGGGGCCUGGAAGUUUGGACUGGGCAGGGCUCAACACAGCGUGGCAAAGUGACUGUGGCUAGACUGCCUCUCUGGAUUCCUCGUCACUCAGCAGGGCAUCUCUGAGAGAAAUGCU [A59G G83A C146U]	0.1
UACGUAGGUGGUUUUCCCCUGAUAGUGCUAAGGGGGCCUGGAAGUUUGGACUGGGCAGGGCUCAACACAGCGUGGCAAAGUGGCUGUAGCUAGACUGCCUCUCUGGAUUCCUCGUCACUCAGCGGGGCAUCUCUGAGAGAAAUGCA [A59G G88A A124G C146A]	0.03
UACGUAGGUGGUUUUCCCCUGAUAGUGCUAAGGGGGCCUGGAAGUUUGGACUGGGCAGGGCUCAACACAGCGUGGCAAAGUGGCUGUUGCUAGACUACCUCUCUGGAUUCCUCGUCACUCGGCAGGGCAUCUCUGAGAGAAAUGCC [A59G G88U G97A A121G]	0.02
UACGUAGGUGGUUUUCCCCUGAUAGUGCUAAGGGGGCCUGGAAGUUUGGACUGGGCAGGGCUCAACACAGCGUGGCAAAGUGGCUGUGACUAGACAGCCUCUCUGGAUUCCUCGUCACUCAGCAGGGCAUCUCUGAGAGAAAUGCC [A59G G89A U96A]	0.03
UACGUAGGUGGUUUUCCCCUGAUAGUGCUAAGGGGGCCUGGAAGUUUGGACUGGGCAGGGCUCAACACAGCGUGGCAAAGUGGCUGUGCCUAGACUGCCUCUCUGGAUUCCACGUCACUCAGCAGGGCAUCUCUGAGAGAAAUGCC [A59G G89C U112A]	0
UACGUAGGUGGUUUUCCCCUGAUAGUGCUAAGGGGGCCUGGAAGUUUGGACUGGGCAGGGCUCAACACAGCGUGGCAAAGUGGCUGUGGCUAUACUGCCUCUCUGGUUUCCUCGUCACUCAGCAGGGCAUCUCUGGGAGAAAUGCC [A59G G93U A107U A136G]	0.02
UACGUAGGUGGUUUUCCCCUGAUAGUGCUAAGGGGGCCUGGAAGUUUGGACUGGGCAGGGCCCGACACAGCGUGGCAAAGUGGCUGUGGCUAGACUGCCUCUCUGGAUUCCUCGUCACUCAGCAGGGCAUCUCUGAGAGAAAUGCC [A59G U62C A64G]	0.51
UACGUAGGUGGUUUUCCCCUGAUAGUGCUAAGGGGGCCUGGAAGUUUGGACUGGGCAGGGCCCAACACAGCGUGGCAAAGUGGCUGUAGCUAGACUGCCUCUCUGGAUUCCUCGUCACUCAGCAGGGCAUCUCUGAGAGAAAUGCC [A59G U62C G88A]	0.04
UACGUAGGUGGUUUUCCCCUGAUAGUGCUAAGGGGGCCUGGAAGUUUGGACUGGGCAGGGCCCAACACAGCGUGGCAAAGUGGCUGUGGCUAGACUGCCUCUCUGGAUUCCUCGUCACUCAGCAGGGCAUCUCUUAGAGAAAUGCC [A59G U62C G135U]	0.03
UACGUAGGUGGUUUUCCCCUGAUAGUGCUAAGGGGGCCUGGAAGUUUGGACUGGGCAGGGCCCAACACAGCGAGGCAAAGUGGCCGUGGCUAGACUGCCUCUCUGGAUUCCUCGUCACUCAGCAGGGCAUCUCUGAGGGAAAUGCC [A59G U62C U73A U85C A138G]	0
UACGUAGGUGGUUUUCCCCUGAUAGUGCUAAGGGGGCCUGGAAGUUUGGACUGGGCAGGGCCCAACACAGCGUGGCAAAGUGGCUGUGGCUAGACUGCCUCUCUGGAUCCCUCGUCACUCAGCAGGGCAUCUCUGAGAGAGAUGCC [A59G U62C U109C A141G]	0
UACGUAGGUGGUUUUCCCCUGAUAGUGCUAAGGGGGCCUGGAAGUUUGGACUGGGCAGGGCUCAACACAGCGAGGCAAAGUGGCUGUGGCUAGACUGCCUCUCUGGAUUCCUCGCCACUCAGCAGGGCAUCUCUGAGAGAAAUGCC [A59G U73A U115C]	0.14
UACGUAGGUGGUUUUCCCCUGAUAGUGCUAAGGGGGCCUGGAAGUUUGGACUGGGCAGGGCUCAACACAGCGCGGCAAAGUGGCUGUGGCUAGACUGCCUCCCUGGAUUCCUCGUCACUCAGCAGGGCAUCUCUGAGAGAAAUGCC [A59G U73C U102C]	0
UACGUAGGUGGUUUUCCCCUGAUAGUGCUAAGGGGGCCUGGAAGUUUGGACUGGGCAGGGCUCAACACAGCGUGGCAAAGAGGCUGUGGCUAGACUGCCUCUCUGGAUUCCUCGCCACUCAGCAGGGCAUCUCUGAGAGAAAUGCC [A59G U81A U115C]	0.15
UACGUAGGUGGUUUUCCCCUGAUAGUGCUAAGGGGGCCUGGAAGUUUGGACUGGGCAGGGCUCAACACAGCGUGGCAAAGCGGCUGUGGCUAGACUGCCUCUCUGGAUUCCUCGUCACUCAGCAGGGCAUCCCUGAGAGAAAUGCC [A59G U81C U132C]	0
UACGUAGGUGGUUUUCCCCUGAUAGUGCUAAGGGGGCCUGGAAGUUUGGACUGGGCAGGGCUCAACACAGCGUGGCAAAGUGGCCGUGGCUAGACUGCCUCUCUGGACUCCUCGUCACUCAGCAGGGCAUCUCUGAGAGAAAUGCC [A59G U85C U108C]	0
UACGUAGGUGGUUUUCCCCUGAUAGUGCUAAGGGGGCCUGGAAGUUUGGACUGGGCAGGGCUCAACACAGCGUGGCAAAGUGGCUGUGGCUAGACCGCCUCUCUGGAUUCCUCGUCACUCAGCAGGGCAUCUCUGAGAGAGAUGCC [A59G U96C A141G]	0
